{"source": "the supplement of paper PMC4604168 (melanoma cell lines)", "note": "This is one part of the list. Many values rest on one well or one pass, so single values are uncertain.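 Note: cell number obtained by counting DAPI-stained nuclei in high-throughput microscope images with image analysis software, screen run in 1,536-well plates.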", "data": [{"tested_on": "LB2518-MEL", "assay": "cell count relative to DMSO control; melanoma cells; higher = more viable cells", "details": "library dose: low library concentration; 72 h", "units": {"cell count": "%"}, "values": [{"smiles": "COc1cc(Nc2ncc(F)c(Nc3ccc4c(n3)NC(=O)C(C)(C)O4)n2)cc(OC)c1OC", "note": "[Tamatinib] + COC(=O)c1sccc1S(=O)(=O)Nc1ccc(Nc2ccccc2)cc1OC [GSK0660] (first compound 0.4 µM, partner dose 1 µM)", "cell count": 97.1}, {"smiles": "O=C(O)c1ccc(-c2c[nH]c3ncc(-c4ccccc4)cc23)cc1C1CCCC1", "note": "+ O=C(O)C(=O)Nc1sc2c(c1C(=O)O)CCNC2 [TCS401] (first compound 0.16 µM, partner dose 1.66667 µM)", "cell count": 114}, {"smiles": "C[C@@H]1CCN(C(=O)CC#N)C[C@@H]1N(C)c1ncnc2[nH]ccc12", "note": "+ N#Cc1c(O)c2c(-c3ccc(-c4ccccc4O)cc3)csc2[nH]c1=O [A769662] (first compound 1 µM, partner dose 2 µM)", "cell count": 108}, {"smiles": "C[C@@H]1CCN(C(=O)CC#N)C[C@@H]1N(C)c1ncnc2[nH]ccc12", "note": "+ CC(C)CCN1c2nc(Nc3cc(F)c(O)c(F)c3)ncc2N(C)C(=O)C1C [BID1870] (first compound 1 µM, partner dose 0.2 µM)", "cell count": 116}, {"smiles": "C[C@@H]1CCN(C(=O)CC#N)C[C@@H]1N(C)c1ncnc2[nH]ccc12", "note": "+ O=c1cc(-c2cccc3c2Sc2ccccc2S3)oc(N2CCOCC2)c1 [KU55933] (first compound 1 µM, partner dose 1 µM)", "cell count": 107}, {"smiles": "O=C(O)c1ccc(-c2c[nH]c3ncc(-c4ccccc4)cc23)cc1C1CCCC1", "note": "+ O=C1NC(=O)/C(=C/c2ccc(-c3ccc(F)cc3O)o2)S1 [AS252424] (first compound 0.16 µM, partner dose 1 µM)", "cell count": 98.6}]}]}
